Results taken from PubChem BioAssay AID1345083 (National Center for Advancing Translational Sciences (NCATS), 2018).
The campaign covered roughly 94,000 compounds. About 6,200 (6.6%) were called active. Inconclusive means that the source gave no clear call. Such entries were picked first, then a sample of the others. Calls follow the shape of the dose curve; as a rule, active = well fitted inhibition curve with a large enough effect; inconclusive = small, poorly fitted or top-dose-only effect; inactive = flat fitted curve, though single readings scatter. Potencies beside an inconclusive call are fits to weak or partial responses and may not hold up.

test: Cytotoxic Profiling in HEK 293 Cell Line of Diverse Libraries Using Quantitative High-Throughput Screening; conditions: HEK 293 viability, ATP luminescence (CellTiter-Glo), 48-72 h; series mostly up to 115 µM; also: nearly all actives have a fitted effect of over 60% in size
Procedure, shortened: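 HEK 293 cells at 250 cells/well were exposed to compounds by pintool transfer for 48 or 72 hr at 37 degree Celsius, 5% CO2. Viability was read as ATP-coupled luminescence with CellTiter-Glo after 10 min at room temperature.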
Potency is read from the fitted curve at half-maximal effect; tags tell the direction and shape of the fitted curve.

| Structure (SMILES) | Potency |
| --- | --- |
| Cc1ccccc1C(=O)N1C(C(=O)NCC2CCCO2)COC12CCC(C)CC2 (stereo unspecified) | inconclusive: 79.4 µM [inhibitor, partial curve] |
| O=C1CCN(C(=O)C2CCN(S(=O)(=O)c3ccc4c(c3)CCC4)CC2)CCCCCCN1 | inactive |
| CCC(C(=O)Nc1ccc2c(c1)CN(Cc1ccccc1OC)C(=O)C(C)O2)c1ccccc1 (stereo unspecified) | inconclusive: 79.4 µM [inhibitor, partial curve] |
| O=C(C1CCCC1)N1CCC(c2nn(-c3ccccn3)c(=O)[nH]2)CC1 | inactive |
| CCCCc1cc(C[C@@H]2C[C@H](NC(=O)NCC)C2(C)C)no1 | inconclusive: 79.4 µM [inhibitor, partial curve] |
| Cc1ccccc1CN1C[C@@H]2C(=O)N(CCc3ccccc3)C(=O)[C@@H]2C1 | inconclusive: 70.8 µM [inhibitor, single point] |
| COc1cc(OCc2ccccc2)ccc1CN1CC[C@@]2(O)CCNC[C@H]2C1 | active: 22.4 µM |
| Fc1cccc(Nc2ncc(-c3cccnc3)c3c2OCC3)c1 | inconclusive: 112 µM [inhibitor, partial curve, poor fit] |
| COCCCN1CC2(CCN(CC(=O)N3CCNCC3)CC2)CC1=O | inactive |
| Cc1ccoc1C(=O)N1CCC(N2CCCC(C(=O)NCc3ccccc3)C2)CC1 (stereo unspecified) | inactive |
| N#CC1CCN(C(=O)c2cc(-c3cccs3)c3cccn3n2)CC1 | active: 79.4 µM |
| CCn1ccc(C(=O)NCCc2noc(-c3cccnc3)n2)n1 | inconclusive: 3.16 µM [inhibitor, full curve, poor fit] |
| Cc1noc(C)c1-c1cc2c(cc(-c3ccccc3)n2C)c(Nc2ccncn2)n1 | active: 31.6 µM |
| OC1(CN2CCCN(c3nc4ccccc4s3)CC2)CNCCOC1 (stereo unspecified) | inconclusive: 56.2 µM [inhibitor, partial curve, poor fit] |
| COc1cccc(CN2CCc3nc(N(C)Cc4cccnc4)[nH]c(=O)c3CC2)c1 | inconclusive: 39.8 µM [inhibitor, full curve, poor fit] |
| Clc1ccccc1CNC1(Cc2cc(-c3ccccc3)on2)COC1 | active: 112 µM |
| CCc1cc(=O)n(CC(=O)Nc2ccc(OC)cc2)c(-c2cccc(F)c2)n1 | inconclusive: 25.1 µM [inhibitor, full curve, poor fit] |
| COc1cc(C)c2c(c1C)C[C@H](C(C)C(=O)NCc1ccco1)CC2 (stereo partly specified) | inconclusive: 100 µM [inhibitor, partial curve, poor fit] |
| Cc1nnc2n1CCC(NC(=O)c1cnccn1)CC2 (stereo unspecified) | inconclusive: 89.1 µM [inhibitor, single point] |
| CNC(=O)[C@H]1C[C@H](Oc2cccnc2)CN1C(=O)Nc1cccc(F)c1 | inactive |
| COc1ccc(CN2Cc3[nH]cnc3C[C@H]2c2nc(-c3ccc(C(F)(F)F)cc3)no2)cc1 | inconclusive: 79.4 µM [inhibitor, partial curve, poor fit] |
| CNC(=O)c1cc(C)nc2onc(C3CCN(C(=O)Cc4cccc(Cl)c4)C3)c12 (stereo unspecified) | inactive |

| Structure (SMILES) | Potency |
| --- | --- |
| O=C(c1ccc(Cl)nc1)N1CCC(C(=O)N2CCC(c3nc4ncccc4[nH]3)CC2)C1 (stereo unspecified) | inactive |
| COc1ccc(NC(=O)N[C@@H]2C=C[C@@H](c3c(C)nn(CCC#N)c3C)C2)cc1 | inconclusive: 89.1 µM [inhibitor, partial curve] |
| COc1ccc(N2CCN(C(=O)CN3C(=O)C(c4ccccc4)=NC3(C)C)CC2)cc1 | inconclusive: 79.4 µM [inhibitor, partial curve, poor fit] |
| O=C(c1ccncc1)N1CCC2(CC1)CC(N(Cc1ccccc1)C1CC1)CCO2 (stereo unspecified) | inconclusive: 28.2 µM [inhibitor, partial curve, poor fit] |
| CC1(c2ccccc2)N(Cc2ccccc2)C(=O)OC12CCN(c1ccncc1)CC2 (stereo unspecified) | active: 89.1 µM |
| Cc1ccc(C(=O)N2CCC3(CC2)NC(=O)N(c2cccc(Cl)c2)N3)c(C)c1 | inconclusive: 44.7 µM [inhibitor, partial curve, poor fit] |
| CN1CCN(c2nc3c(c(=O)[nH]2)CCN(Cc2ccccc2C(F)(F)F)CC3)CC1 | active: 79.4 µM |
| COc1ccc(F)cc1S(=O)(=O)N1CCC(Oc2ccc(C(N)=O)cn2)CC1 | inactive |
| CCCCCNC(=O)Cc1csc2nc(C)c(-c3cc(C)n(-c4cc(F)ccc4C)n3)c(=O)n12 | inconclusive: 25.1 µM [inhibitor, partial curve, poor fit] |
| Cc1noc(C)c1CC(=O)NC1CCCc2c1[nH]c1c(Cl)cccc21 (stereo unspecified) | inconclusive: 79.4 µM [inhibitor, partial curve, poor fit] |
| CNC(=O)[C@H]1C[C@H](Oc2ccccc2)CN1C(=O)NCc1ccc(OC)cc1 | inactive |
| CN1Cc2ccc(Nc3ccccc3)nc2C(C)(C(=O)NCCc2ccccn2)C1 (stereo unspecified) | inconclusive: 100 µM [inhibitor, partial curve, poor fit] |
| COc1ccc(CN(C)CC2CCN(CCc3ccc(F)cc3)CC2)cc1Cn1cccn1 | active: 28.2 µM |
| CCc1cccc(C)c1NC(=O)CN1C(=O)NC(c2ccc(Cl)cc2)C2=C1COC2=O (stereo unspecified) | inconclusive: 56.2 µM [inhibitor, partial curve, poor fit] |
| CCCCCNc1ncnc2c1CN(c1ccccc1)C(=O)N(C)C2 | inconclusive: 126 µM [inhibitor, single point] |
| N#Cc1cccc(CN2CCCC23Cc2ccccc2CNC3=O)c1 (stereo unspecified) | inactive |
| CCc1cc(N2CCC(NCCc3cccc(Cl)c3)CC2)nc(C)n1 | inconclusive: 15.8 µM [inhibitor, full curve, poor fit] |
| COc1ccc(C(=O)N2CCC(n3c(C)cnc3-c3ccccc3)CC2)c(OC)c1 | inconclusive: 28.2 µM [inhibitor, partial curve] |
| COc1cccc(C(=O)N2CCCN(c3cc(-c4ccc(Cl)cc4)[nH]n3)CC2)c1OC | inconclusive: 39.8 µM [inhibitor, partial curve, poor fit] |
| O=C(Cn1ccn2nc(-c3ccc(F)cc3)c(CO)c2c1=O)NCCc1ccccc1 | inactive |
| COc1ccccc1-c1cnc(NCc2ccccc2)c2c1CCO2 | inconclusive: 56.2 µM [inhibitor, full curve, poor fit] |
| COc1ccc(C(=O)N2CCOC(CCCC(C)C)C2)cc1OC (stereo unspecified) | inconclusive: 79.4 µM [inhibitor, single point] |

| Structure (SMILES) | Potency |
| --- | --- |
| Cn1nccc1C(=O)N1CCCN(Cc2ccncc2)C(c2ccccc2)CC(=O)NCC1 (stereo unspecified) | inactive |
| CN(C(=O)Nc1ccc(Cl)cc1)C1CCc2ccccc21 (stereo unspecified) | inconclusive: 126 µM [inhibitor, single point] |
| O=C1CCC2(C(=O)NCc3ccc4c(c3)OCO4)CCC=C2N1C1CCCC1 (stereo unspecified) | inconclusive: 70.8 µM [inhibitor, partial curve, poor fit] |
| Cc1ccc(CNC(=O)C2Cn3cccc3C(=O)N2C)o1 (stereo unspecified) | inactive |
| COc1ccc(-c2c(C(=O)NCc3cccs3)nc3sccn23)cc1 | inactive |
| Cc1noc(C)c1-c1ccc2c(n1)CN(Cc1ccc(F)cc1)C(=O)CO2 | inconclusive: 100 µM [inhibitor, partial curve, poor fit] |
| Cc1cc(C)cc(C(=O)NC2CCCN(c3cc(-c4ccc(F)cc4)[nH]n3)C2)c1 (stereo unspecified) | active: 44.7 µM |
| COc1cccc(-c2cccc(C(=O)N3CCCC3C(=O)NC3CC3)c2)c1 (stereo unspecified) | inconclusive: 70.8 µM [inhibitor, partial curve, poor fit] |
| COCC(=O)NC1CCN(Cc2ccc(-c3cc(F)ccc3OC)cc2)C1 (stereo unspecified) | inconclusive: 79.4 µM [inhibitor, partial curve, poor fit] |
| COc1ccccc1Oc1c(CCC(=O)NCc2ccco2)c(C)nn1-c1ccc(F)cc1 | inconclusive: 50.1 µM [inhibitor, partial curve, poor fit] |
| O=C(NC1CCCCC1)C1CN(S(=O)(=O)c2cc(F)ccc2F)CC12CCOCC2 (stereo unspecified) | inactive |
| COc1cccc(CN2CCC(Oc3ccccc3-c3nc(-c4ccncc4)no3)C2)c1 (stereo unspecified) | inconclusive: 22.4 µM [inhibitor, full curve, poor fit] |
| O=C(CCc1ccccc1)N1CCC(CCOc2ccccc2F)C1 (stereo unspecified) | inconclusive: 56.2 µM [inhibitor, partial curve, poor fit] |
| O=C(Nc1cc(C2CC2)nn1-c1ccccc1)c1ccccc1Cl | inactive |
| N#Cc1cccc(C(=O)N2CCC(n3cc(-c4nc(-c5ccccc5)no4)nn3)C2)c1 (stereo unspecified) | inconclusive: 56.2 µM [inhibitor, partial curve, poor fit] |
| O=C1COc2ccccc2CCNC(=O)[C@H](Cc2ccc(OCCOCc3ccccc3)cc2)N1 | inconclusive: 50.1 µM [inhibitor, partial curve, poor fit] |
| Cn1nc(-c2nncn2CC2CC2)c2c1CCN(C(=O)c1ccncc1)C2 | inactive |
| O=C1N2CCCC2CN1C1CCN(Cc2ccsc2)CC1 (stereo unspecified) | inactive |
| O=C(NCCn1ccn2nc(-c3ccc(F)cc3)cc2c1=O)c1cc(Cl)ccc1F | inconclusive: 89.1 µM [inhibitor, single point] |
| COC(=O)c1cccc(NC(=S)N[C@@H]2C=C[C@@H](c3c(C)nn(-c4ccc(F)cc4)c3C)C2)c1 | active: 31.6 µM |
| COc1c(F)cccc1CN1CCOc2cc([S+](=O)([O-])N(C)C)ccc2C1 | active: 79.4 µM |
| O=C1OCCCN1CCNC(=O)[C@@]12CNC[C@@H]1CN(Cc1ccccc1)C2 | inconclusive: 89.1 µM [inhibitor, single point] |
